According to article PMC8873214, “RIOX1-demethylated cGAS regulates ionizing radiation-elicited DNA repair” (Bone Research, 2022):

Molecular target: T1, GST-RIOX1 (mouse, UniProt Q9JJF3 1-603)
T1 construct: ribosomal oxygenase 1 (RIOX1), mouse; only the mouse Riox1 cDNA was cloned; also called purified GST-RIOX1 protein; source: E. coli BL21(DE3), purified
T1 sequence (looked up): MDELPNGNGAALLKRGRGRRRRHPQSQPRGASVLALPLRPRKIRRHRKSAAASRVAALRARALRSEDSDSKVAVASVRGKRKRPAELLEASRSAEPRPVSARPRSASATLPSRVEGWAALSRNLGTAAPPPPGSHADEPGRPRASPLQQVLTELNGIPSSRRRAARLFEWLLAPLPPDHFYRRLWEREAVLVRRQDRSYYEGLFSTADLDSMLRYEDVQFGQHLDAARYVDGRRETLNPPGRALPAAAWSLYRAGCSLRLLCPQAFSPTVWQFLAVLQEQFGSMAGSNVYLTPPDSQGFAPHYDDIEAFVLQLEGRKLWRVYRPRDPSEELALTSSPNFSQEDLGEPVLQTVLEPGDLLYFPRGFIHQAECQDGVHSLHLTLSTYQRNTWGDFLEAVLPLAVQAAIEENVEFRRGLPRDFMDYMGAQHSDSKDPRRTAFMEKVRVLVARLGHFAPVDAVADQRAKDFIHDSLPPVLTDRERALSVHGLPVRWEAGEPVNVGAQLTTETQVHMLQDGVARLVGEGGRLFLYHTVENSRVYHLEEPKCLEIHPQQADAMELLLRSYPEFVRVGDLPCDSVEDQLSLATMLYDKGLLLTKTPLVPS
Assay: pull-down; GST pulldown: bacterially purified GST-RIOX1 mixed with purified His-cGAS; immunoblot
Conditions: both partners purified

binding result: binds
B1: His-cGAS (natural protein)
chain: not shown
notes: cyclic GMP-AMP synthase (cGAS), mouse; mouse and human cGAS were both cloned; also called bacterially purified cGAS protein; purified His-cGAS protein; source: E. coli BL21(DE3), purified
